Laboratory results reported in the supplement of paper PMC4604168 (melanoma cell lines).
The list shows a part of the results. Most values come without repeats; read them as rough.

system: UACC257; test: cell count relative to DMSO control; melanoma cells; higher = more viable cells; settings: library dose: standard library concentration; 72 h
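Also: cells treated in 1,536-well plates, then fixed and DAPI-stained, with nuclei counted from automated high-throughput microscope images.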

SMILES | cell count
CN1CCN(c2ccc3nc(-c4c(N)c5c(F)cccc5[nH]c4=O)[nH]c3c2)CC1 [Dovitinib] + O=C(O)C(=O)Nc1sc2c(c1C(=O)O)CCNC2 [TCS401] (first compound 0.5 µM, partner dose 8.33333 µM) | 70.5%
CS(=O)(=O)CCNCc1ccc(-c2ccc3ncnc(Nc4ccc(OCc5cccc(F)c5)c(Cl)c4)c3c2)o1 [lapatinib] + N#Cc1c(O)c2c(-c3ccc(-c4ccccc4O)cc3)csc2[nH]c1=O [A769662] (first compound 4 µM, partner dose 10 µM) | 100%
CS(=O)(=O)CCNCc1ccc(-c2ccc3ncnc(Nc4ccc(OCc5cccc(F)c5)c(Cl)c4)c3c2)o1 [lapatinib] + O=C(O)C(=O)Nc1sc2c(c1C(=O)O)CCNC2 [TCS401] (first compound 4 µM, partner dose 8.33333 µM) | 87.5%
CN1CCN(c2ccc3nc(-c4c(N)c5c(F)cccc5[nH]c4=O)[nH]c3c2)CC1 [Dovitinib] + N#Cc1c(O)c2c(-c3ccc(-c4ccccc4O)cc3)csc2[nH]c1=O [A769662] (first compound 0.5 µM, partner dose 10 µM) | 88.8%
C[C@@H](Oc1cc(-c2cnn(C3CCNCC3)c2)cnc1N)c1c(Cl)ccc(F)c1Cl [Crizotinib] + O=C(Nc1ccccc1)c1cc([N+](=O)[O-])ccc1Cl [GW9662] (first compound 1 µM, partner dose 10 µM) | 76.6%

system: UACC62; test: as above; settings: library dose: standard library concentration; 72 h

SMILES | cell count
CS(=O)(=O)CCNCc1ccc(-c2ccc3ncnc(Nc4ccc(OCc5cccc(F)c5)c(Cl)c4)c3c2)o1 [lapatinib] + COc1cc2ncnc(Nc3ccc(Oc4ccccc4)cc3)c2cc1OC [SrcI1] (first compound 4 µM, partner dose 10 µM) | 36.1%
CNC(=O)c1cc(Oc2ccc(NC(=O)Nc3ccc(Cl)c(C(F)(F)F)c3)cc2)ccn1 [sorafenib] + COc1ccc2c(c1)CCC1C2CCC2(C)C(NCCCCCCN3C(=O)C=CC3=O)CCC12 [U73122] (first compound 2 µM, partner dose 2 µM) | 61.5%
CNC(=O)c1cc(Oc2ccc(NC(=O)Nc3ccc(Cl)c(C(F)(F)F)c3)cc2)ccn1 [sorafenib] + Cc1cc([N+](=O)[O-])ccc1NS(=O)(=O)c1cc(Cl)ccc1Cl [FH535] (first compound 2 µM, partner dose 5 µM) | 64.3%
CN1CCN(c2ccc3nc(-c4c(N)c5c(F)cccc5[nH]c4=O)[nH]c3c2)CC1 [Dovitinib] + CCc1ccc(CCOc2ccc(CC3SC(=O)NC3=O)cc2)nc1 [pioglitazone] (first compound 0.5 µM, partner dose 10 µM) | 87.9%
C=CCNC1=C2C[C@@H](C)C[C@H](OC)[C@H](O)[C@@H](C)/C=C(\C)[C@H](OC(N)=O)[C@@H](OC)/C=C\C=C(/C)C(=O)NC(=CC1=O)C2=O [Tanespimycin] + N#Cc1c(O)c2c(-c3ccc(-c4ccccc4O)cc3)csc2[nH]c1=O [A769662] (first compound 0.01 µM, partner dose 10 µM) | 50.7%
C[C@@H](Oc1cc(-c2cnn(C3CCNCC3)c2)cnc1N)c1c(Cl)ccc(F)c1Cl [Crizotinib] + Oc1nc(-c2ccc(C(F)(F)F)cc2)nc2c1CSCC2 [XAV939] (first compound 1 µM, partner dose 10 µM) | 56.7%
CS(=O)(=O)CCNCc1ccc(-c2ccc3ncnc(Nc4ccc(OCc5cccc(F)c5)c(Cl)c4)c3c2)o1 [lapatinib] + O=c1cc(-c2cccc3c2Sc2ccccc2S3)oc(N2CCOCC2)c1 [KU55933] (first compound 4 µM, partner dose 5 µM) | 72.9%
C=CCNC1=C2C[C@@H](C)C[C@H](OC)[C@H](O)[C@@H](C)/C=C(\C)[C@H](OC(N)=O)[C@@H](OC)/C=C\C=C(/C)C(=O)NC(=CC1=O)C2=O [Tanespimycin] + CCN(CC)CCCCNc1ncc2cc(-c3cc(OC)cc(OC)c3)c(NC(=O)NC(C)(C)C)nc2n1 [PD173074] (first compound 0.01 µM, partner dose 0.5 µM) | 59.2%
CS(=O)(=O)CCNCc1ccc(-c2ccc3ncnc(Nc4ccc(OCc5cccc(F)c5)c(Cl)c4)c3c2)o1 [lapatinib] + CCc1ccc(CCOc2ccc(CC3SC(=O)NC3=O)cc2)nc1 [pioglitazone] (first compound 4 µM, partner dose 10 µM) | 42.3%
CN1CCN(c2ccc3nc(-c4c(N)c5c(F)cccc5[nH]c4=O)[nH]c3c2)CC1 [Dovitinib] + COc1cc(N2CCC(N3CCN(C)CC3)CC2)ccc1Nc1ncc(Cl)c(Nc2ccccc2S(=O)(=O)C(C)C)n1 [NVP-TAE684] (first compound 0.5 µM, partner dose 0.4 µM) | 64.3%
CS(=O)(=O)CCNCc1ccc(-c2ccc3ncnc(Nc4ccc(OCc5cccc(F)c5)c(Cl)c4)c3c2)o1 [lapatinib] + COc1ccc2c(c1)CCC1C2CCC2(C)C(NCCCCCCN3C(=O)C=CC3=O)CCC12 [U73122] (first compound 4 µM, partner dose 2 µM) | 37.9%
CNC(=O)c1cc(Oc2ccc(NC(=O)Nc3ccc(Cl)c(C(F)(F)F)c3)cc2)ccn1 [sorafenib] + CCN(CC)CCCCNc1ncc2cc(-c3cc(OC)cc(OC)c3)c(NC(=O)NC(C)(C)C)nc2n1 [PD173074] (first compound 2 µM, partner dose 0.5 µM) | 118%
C=CCNC1=C2C[C@@H](C)C[C@H](OC)[C@H](O)[C@@H](C)/C=C(\C)[C@H](OC(N)=O)[C@@H](OC)/C=C\C=C(/C)C(=O)NC(=CC1=O)C2=O [Tanespimycin] + CCCCCCCCCCCC1=C(O)C(=O)C=C(O)C1=O [Embelin] (first compound 0.01 µM, partner dose 6 µM) | 68.1%
C=CCNC1=C2C[C@@H](C)C[C@H](OC)[C@H](O)[C@@H](C)/C=C(\C)[C@H](OC(N)=O)[C@@H](OC)/C=C\C=C(/C)C(=O)NC(=CC1=O)C2=O [Tanespimycin] + COc1ccc2c(c1)CCC1C2CCC2(C)C(NCCCCCCN3C(=O)C=CC3=O)CCC12 [U73122] (first compound 0.01 µM, partner dose 2 µM) | 66.1%
CNC(=O)c1cc(Oc2ccc(NC(=O)Nc3ccc(Cl)c(C(F)(F)F)c3)cc2)ccn1 [sorafenib] + O=C1NC(=O)/C(=C/c2ccc(-c3ccc(F)cc3O)o2)S1 [AS252424] (first compound 2 µM, partner dose 5 µM) | 125%
CN1CCN(c2ccc3nc(-c4c(N)c5c(F)cccc5[nH]c4=O)[nH]c3c2)CC1 [Dovitinib] + Oc1nc(-c2ccc(C(F)(F)F)cc2)nc2c1CSCC2 [XAV939] (first compound 0.5 µM, partner dose 10 µM) | 100%
CS(=O)(=O)CCNCc1ccc(-c2ccc3ncnc(Nc4ccc(OCc5cccc(F)c5)c(Cl)c4)c3c2)o1 [lapatinib] + CCCCCCCCCCCC1=C(O)C(=O)C=C(O)C1=O [Embelin] (first compound 4 µM, partner dose 6 µM) | 66.8%
CN1CCN(c2ccc3nc(-c4c(N)c5c(F)cccc5[nH]c4=O)[nH]c3c2)CC1 [Dovitinib] + COc1ccc(-c2ccc3c(N4CCOCC4)nc(N4C[C@@H](C)O[C@@H](C)C4)nc3n2)cc1CO [KU0063794] (first compound 0.5 µM, partner dose 0.1 µM) | 95.2%
C=CCNC1=C2C[C@@H](C)C[C@H](OC)[C@H](O)[C@@H](C)/C=C(\C)[C@H](OC(N)=O)[C@@H](OC)/C=C\C=C(/C)C(=O)NC(=CC1=O)C2=O [Tanespimycin] + COc1ccc(-c2ccc3c(N4CCOCC4)nc(N4C[C@@H](C)O[C@@H](C)C4)nc3n2)cc1CO [KU0063794] (first compound 0.01 µM, partner dose 0.1 µM) | 74%
CN1CCN(c2ccc3nc(-c4c(N)c5c(F)cccc5[nH]c4=O)[nH]c3c2)CC1 [Dovitinib] + COc1cc2ncnc(Nc3ccc(Oc4ccccc4)cc3)c2cc1OC [SrcI1] (first compound 0.5 µM, partner dose 10 µM) | 45.1%
C=CCNC1=C2C[C@@H](C)C[C@H](OC)[C@H](O)[C@@H](C)/C=C(\C)[C@H](OC(N)=O)[C@@H](OC)/C=C\C=C(/C)C(=O)NC(=CC1=O)C2=O [Tanespimycin] + O=c1cc(-c2cccc3c2Sc2ccccc2S3)oc(N2CCOCC2)c1 [KU55933] (first compound 0.01 µM, partner dose 5 µM) | 47.7%
C=CCNC1=C2C[C@@H](C)C[C@H](OC)[C@H](O)[C@@H](C)/C=C(\C)[C@H](OC(N)=O)[C@@H](OC)/C=C\C=C(/C)C(=O)NC(=CC1=O)C2=O [Tanespimycin] + COc1ccc(COc2ccc(Cc3cnc(N)nc3N)cc2OC)cc1 [GW2580] (first compound 0.01 µM, partner dose 5 µM) | 68.9%
CNC(=O)c1cc(Oc2ccc(NC(=O)Nc3ccc(Cl)c(C(F)(F)F)c3)cc2)ccn1 [sorafenib] + N#Cc1c(O)c2c(-c3ccc(-c4ccccc4O)cc3)csc2[nH]c1=O [A769662] (first compound 2 µM, partner dose 10 µM) | 86.8%
CN1CCN(c2ccc3nc(-c4c(N)c5c(F)cccc5[nH]c4=O)[nH]c3c2)CC1 [Dovitinib] + O=C1NC(=O)/C(=C/c2ccc(-c3ccc(F)cc3O)o2)S1 [AS252424] (first compound 0.5 µM, partner dose 5 µM) | 89.8%
